Patent US20240327509A1, “HUMAN CXCLI6 ANTIBODIES AND THE USE THEREOF” (CELLUS,INC., priority 2021, published 2024)

T1: Recombinant human CXCL16 (rhCXCL16) protein (Homo sapiens, UniProt Q9H2A7)
T1 sequence (Q9H2A7 30-118): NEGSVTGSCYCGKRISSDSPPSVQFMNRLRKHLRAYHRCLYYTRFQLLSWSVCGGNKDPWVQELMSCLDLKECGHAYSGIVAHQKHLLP

T2: recombinant human CXCL16 antigen (Homo sapiens, UniProt Q9H2A7)
T2 construct: purchased R&D systems 976-CX
T2 sequence (Q9H2A7 30-118 limits assumed): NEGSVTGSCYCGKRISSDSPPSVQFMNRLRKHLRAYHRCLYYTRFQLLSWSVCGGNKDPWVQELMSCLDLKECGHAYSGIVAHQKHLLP


Legend:
[1] = target: T1, Recombinant human CXCL16 (rhCXCL16) protein; assay: bio-light interferometry (ForteBio) binding analysis; settings: for ka / kd: antibody captured on biosensor, rhCXCL16 100 nM, 25° C., ND = signal was not detectable; for binding to human CXCL16: in words
Experimental: The binding characteristics of 25 CXCL16 antibodies were analyzed using the bio-light interferometry (ForteBio). All antibodies were diluted in freshly prepared running buffer. Antibodies were immobilized onto the surface of a series of biosensors using the capture methods at 0.3 μg/mL. Recombinant human CXCL16 (rhCXCL16) protein (100 nM) was passed over the surface to generate a binding response for 10 minutes. Binding data for the antibody and antigen interactions were collected at 25° C. on the biosensors. Then, the running buffer was passed for 10 minutes to dissociate them. The association constant (ka) and the dissociation constant (ka) were observed, and the equilibrium binding constant (KD) was calculated. […] R2: The value indicating how well the fit and experimental data correlate; X^2: The measure of error between the experimental data and fitted line.

[2] = target: T2, recombinant human CXCL16 antigen; assay: protein-based ELISA on immobilized human CXCL16 antigen; format: binding; settings: antibody 0.001~10 nM; versus control IgG antibody; FIG. 1A
Experimental: To further characterize the binding affinity of selected 6 of CXCL16 antibodies, the protein-based ELISA was performed. The recombinant human CXCL16 antigen (976-CX, R&D systems, USA) was immobilized onto 96-well plates and incubated for 2 hours at room temperature. Non-specific binding sites were blocked by incubating with 1% BSA in PBS overnight at 4° C. Plates were then washed with PBS. Humanized CXCL16 antibodies at various concentrations (0.001˜10 nM) were incubated with the immobilized antigen for 2 hours at room temperature. After the incubation, the plates were washed, incubated with HRP-labeled anti-human IgG antibody (W4031, Promega, USA) for 0.5 hours, and developed using the substrate solution (DY008B, R&D systems).

[3] = system: CXCR6-overexpressed CHO-K1 cells; assay: transwell migration assay toward rhCXCL16; format: cell-based; settings: 100 ng/mL rhCXCL16 in lower chamber, 4-5 h; FIG. 2A
Experimental: CXCR6 is a receptor for chemokine CXCL16 and cells harboring CXCR6 migrate in response to CXCL16. Therefore, to evaluate the activity of CXCL16 antibody in inhibiting cell migration induced by CXCL16 and CXCR6 interaction, transwell migration assays were performed. A polycarbonate membrane with a pore size of 8 μm (Corning, NY, USA) was pre-coated with gelatin, and the membrane was placed into a 24-well plate. The membrane separated each well into an upper chamber and a lower chamber. The upper chamber was plated with CXCR6-overexpressed CHO-K1 cells. The lower chamber was filled with media containing 100 ng/mL rhCXCL16. After 4-5 h, the lower chamber was stained with 1% crystal violet solutions and the numbers of migrated cells on the lower chamber were counted.

[4] = system: thyroid cancer cell BHP10-3M; assay: transwell migration assay toward co-CM; format: cell-based; settings: antibody 10-100 μg/mL, 6 hours, FIG. 2B
Experimental: To evaluate that blockage of CXCL16 could lead to inhibit cancer cell migration. transwell migration assay was performed. For assay, 8 μm pore-size polycarbonate membrane (Corning, NY, USA) was used. A polycarbonate membrane with a pore size of 8 μm (Corning, NY, USA) was pre-coated with gelatin, and the membrane was placed into a 24-well plate. The membrane separated each well into an upper chamber and a lower chamber. CXCL16 antibody (at 10-100 μg/mL) was preincubated in the upper and lower chamber for 0.5 hours. The upper and lower chamber were plated with thyroid cancer cell BHP10-3M (1×10^5/100 μL) and co-culture conditioned medium (0.5× co-CM), respectively.
The co-CM is the conditioned medium obtained from co-culture of BHP 10^-3M and THP-1 cells. The BHP10-3M cells were seeded on 100 mm culture dishes with 3×10^6 cells in 10 ml of RPMI1640 medium. After 24 hours incubation, THP-1 cells were seeded additionally with 6×10^6 cells. After then, 10 μL of 5 mM PMA stock solution (V1171, Promega) to 10 mL of RPMI medium to make 5 μM PMA. It induced the macrophage differentiation. After 24 hours incubation, the conditioned medium obtained from the co-culture of thyroid cancer cells and macrophages (co-CM) were collected, and it was rich in CXCL16. After 6 hours of incubation of thyroid cancer cells in the upper chamber and co-CM in the lower chamber, the lower chamber was stained with 1% crystal violet solutions and the numbers of migrated cells were counted. […] Sec FIG. 2B.

Akt phosphorylation = assay: rhCXCL16-induced Akt phosphorylation in cancer cells (western blot); format: cell-based; settings: 100 ng/ml rhCXCL16 30 minutes, 10 μg/mL antibody; thyroid, breast and prostate cancer cells; FIG. 3
Experimental: The CXCL16-CXCR6 interaction activates intracellular Akt signaling pathway, which promote cell migration. This experiment was designed to evaluate the ability of CXCL16 antibodies in blocking the Akt signaling induced by the CXCL16-CXCR6 interaction. Cancer cells were treated with 100 ng/ml of rhCXCL16 (976-CX, R&D systems) for 30 minutes in the presence of 10 μg/mL of humanized CXCL16 antibody (HC4LC1, HC5LC1. HC5LC2. HC5LC3. or HC5LC5) or control antibody (MAB976. R&D Systems, Minneapolis, MN). Cell lysates were harvested. Anti-pAkt (dilution ratio 1:1000, #9102; Cell Signaling), anti-Akt (dilution ratio 1:1000, #4370; Cell Signaling), and anti-β actin antibodies (dilution ratio 1:10,000, STJ91464, St John's laboratory, UK) were used. […] HCSLC2.

[5] = system: Human CD11b+bone marrow myeloid cells; assay: two-chamber in vitro model of bone metastasis, cell migration; format: cell-based; settings: FIG. 8B
Experimental: In some embodiments, the CXCL16 antibodies disclosed herein inhibit bone metastasis of cancer cells. The antibodies activity in inhibiting bone metastasis is assessed with methods well-known in the art. One exemplary method uses a two-chamber system mimicking the metastatic niche of bone. In brief, an upper chamber, which is a mesh insert, is suspended within a lower chamber. The lower chamber contains cancer cells/whole marrow cell co-cultures and CXCL16 enriched fluid, mimicking the microenvironment of the metastatic niche of bone. The upper chamber harbors pre-osteoclasts from the bone marrow (for example, Human CD11b+bone marrow myeloid cells). Typically, pre-osteoclasts differentiate into osteoclasts, which support tumor formation in the metastatic niche of the bone. Inhibiting pre-osteoclasts migration thus could effectively block tumor progression in the metastatic niche of the bone, i.e., inhibiting bone metastasis. After contacting the cells in the upper chamber with the CXCL16 antibody, cells retained in the upper chamber (aka, the mesh of the insert) are counted; the number of these cells positively correlates with the ability of the antibodto inhibitng cell recruitment into the metastatic niche:
A two-chamber system was set up to resemble the metastatic niche of bone. A lower chamber contains a conditioned medium (CM) of cancer cells/whole marrow cell co-cultures (called co-CM), which is CXCL16 enriched. CM from cancer cell cultures alone is used for control, referred to as single-CM. Single-CM contains negligible concentrations of CXCL16. An upper chamber (using insert) harboring cells that can be recruited into the metastatic chambers. Human CD11b+bone marrow myeloid cells were treated with the CXCL16 antibodies for one hour, and the treated cells were added to upper chamber. After 4 hr, the insert (aka. the upper chamber) was harvested and cells in the insert were stained and the ability of the CXCL16 antibody in inhibiting cell recruitment into the metastatic niche were assessed.

ka [1] | kd [1] | binding to human CXCL16 [1] | Molecule | binding affinity to human CXCL16 (ELISA) [2] | migration of CXCR6-overexpressed CHO-K1 cell from upper chamber to the lower chamber [3] | cell migration into the lower chamber of BHP10-3M cells [4] | Akt phosphorylation activated by rhCXCL16 (Akt phosphorylation) | chemotaxis and migration (migration of CD11b+ cells) [5]
1.74E+04 m^−1s^−1 | 1.9e-05 s⁻¹ | strong binding | HC4LC1: humanized CXCL16 antibody, VH SEQ ID NO: 4, VL SEQ ID NO: 6; heavy chain SEQ ID NO: 41, light chain SEQ ID NO: 43 (antibody) heavy: EVQLVESGGGLVKPGGSLRLSCAASGFTFSNAVMNWVRQAPGKGLEWVARIRTKPNNYATFYADSVKGRFTFSRDDSKNTLYLQMNSLKTEDTAVYYCTAWTTEGIYWGQGTTVTVSS[human IgG1 constant region left out] light: DIVMTQSPDSLAVSAGETVTINCKSSQSLLYSGNQKNYLAWYQQKPGQSPKLLIYWASTRQSGVPDRFSGSGSGTDFTLTISSVQAEDVAVYYCQQYYDTPWTFGGGTKVEIKRTVAAPSVFIFPPSDEQLKSGTASVVCLLNNFYPREAKVQWKVDNALQSGNSQESVTEQDSKDSTYSLSSTLTLSKADYEKHKVYACEVTHQGLSSPVTKSFNRGEC | significantly higher than a control IgG antibody | inhibited the migration | decreased the migration | abrogate the Akt phosphorylation | 
2.43E+04 m^−1s^−1 | 6.07e-05 s⁻¹ | strong binding | HC5LC2: humanized CXCL16 antibody, VH SEQ ID NO: 5, VL SEQ ID NO: 7; heavy chain SEQ ID NO: 42, light chain SEQ ID NO: 44 (antibody) heavy: EVQLVESGGGLVQPGGSLKLSCAASGFTFSNAVMNWVRQASGKGLEWVARIRTKPNNYATFYADSVKGRFTFSRDDSKNTAYLQMNSLKTEDTAMYYCTAWTTEGIYWGQGTLVTVSS[human IgG1 constant region left out] light: DIVMTQSPSSLAVSLGETATINCKSSQSLLYSGNQKNYLAWYQQKPGQPPKLLIYWASTRQSGVPDRFTGSGAGTDFTLTISSVQAEDLAIYYCQQYYDTPWTFGGGTKVEIKRTVAAPSVFIFPPSDEQLKSGTASVVCLLNNFYPREAKVQWKVDNALQSGNSQESVTEQDSKDSTYSLSSTLTLSKADYEKHKVYACEVTHQGLSSPVTKSFNRGEC | significantly higher than a control IgG antibody | inhibited the migration | decreased the migration | abrogate the Akt phosphorylation | inhibits chemotaxis and migration
2.64E+04 m^−1s^−1 | 0.000635 s⁻¹ | strong binding | HC5LC3: humanized CXCL16 antibody, VH SEQ ID NO: 5, VL SEQ ID NO: 8; heavy chain SEQ ID NO: 42, light chain SEQ ID NO: 45 (antibody) heavy: EVQLVESGGGLVQPGGSLKLSCAASGFTFSNAVMNWVRQASGKGLEWVARIRTKPNNYATFYADSVKGRFTFSRDDSKNTAYLQMNSLKTEDTAMYYCTAWTTEGIYWGQGTLVTVSS[human IgG1 constant region left out] light: DIQMTQSPSSLSASVGDRVTITCKSSQSLLYSGNQKNYLAWYQQKPGQSPKLLIYWASTRQSGVPDRFSGSGSGTDFTLTISSLQAEDFATYYCQQYYDTPWTFGGGTKVEIKRTVAAPSVFIFPPSDEQLKSGTASVVCLLNNFYPREAKVQWKVDNALQSGNSQESVTEQDSKDSTYSLSSTLTLSKADYEKHKVYACEVTHQGLSSPVTKSFNRGEC | significantly higher than a control IgG antibody | inhibited the migration | decreased the migration | abrogate the Akt phosphorylation | 
1.83E+04 m^−1s^−1 | 5.97e-05 s⁻¹ | strong binding | HC5LC1: humanized CXCL16 antibody, VH SEQ ID NO: 5, VL SEQ ID NO: 6; heavy chain SEQ ID NO: 42, light chain SEQ ID NO: 43 (antibody) heavy: EVQLVESGGGLVQPGGSLKLSCAASGFTFSNAVMNWVRQASGKGLEWVARIRTKPNNYATFYADSVKGRFTFSRDDSKNTAYLQMNSLKTEDTAMYYCTAWTTEGIYWGQGTLVTVSS[human IgG1 constant region left out] light: DIVMTQSPDSLAVSAGETVTINCKSSQSLLYSGNQKNYLAWYQQKPGQSPKLLIYWASTRQSGVPDRFSGSGSGTDFTLTISSVQAEDVAVYYCQQYYDTPWTFGGGTKVEIKRTVAAPSVFIFPPSDEQLKSGTASVVCLLNNFYPREAKVQWKVDNALQSGNSQESVTEQDSKDSTYSLSSTLTLSKADYEKHKVYACEVTHQGLSSPVTKSFNRGEC | significantly higher than a control IgG antibody | inhibited the migration | decreased the migration | abrogate the Akt phosphorylation | inhibits chemotaxis and migration
